# Assay results reported in the supplement of paper PMC8792480.
# The list shows a part of the results. Most values come without repeats; read them as rough.
# System: A549
# Assay: cell-surface PD-L1 MFI ratio relative to cisplatin alone (isotype-subtracted); higher = higher PD-L1 surface expression
# Settings: inducer: cisplatin 4 uM; 10 µM; 24 h
# Description: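 A549 and H460 NSCLC cells were treated with each library drug at 10 uM, then with radiation (8 Gy) or cisplatin (4 uM), and incubated for 24 h. Cell-surface PD-L1 was measured by flow cytometry as an MFI ratio: (MFI drug+inducer - MFI isotype)/(MFI inducer alone - MFI isotype). Hits were defined as ratio < 0.75.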
row,Compound,cell-surface PD-L1 MFI ratio
1,CCc1cncnc1N1CCN(Cc2nc3ccc(C(F)(F)F)cc3[nH]2)CC1,inactive: 1.26
2,"CC1(C)CCC(CN2CCN(c3ccc(C(=O)NS(=O)(=O)c4ccc(NCC5CCOCC5)c([N+](=O)[O-])c4)c(Oc4cnc5[nH]ccc5c4)c3)CC2)=C(c2ccc(Cl)cc2)C1 [Venetoclax (ABT-199, GDC-0199)]",inactive: 1.1
3,COc1cc(Br)c(Nc2nc(-c3c(C)nc4ncccn34)cs2)c(Br)c1,inactive: 0.882
4,Nc1nc(F)nc2c1ncn2[C@@H]1O[C@H](CO)[C@@H](O)[C@@H]1O [Fludarabine],inactive: 0.791
5,Cc1cc(C(C)Nc2ccccc2)c2nc(N3CCOCC3)cc(=O)n2c1 (stereo not given),inactive: 0.798
6,Cc1[nH]c(/C=C2\C(=O)Nc3ccc(S(=O)(=O)Cc4c(Cl)cccc4Cl)cc32)c(C)c1C(=O)N1CCC[C@@H]1CN1CCCC1,inactive: 4.82
7,CC[C@H](C)C(=O)O[C@H]1C[C@@H](C)C=C2C=C[C@H](C)[C@H](CC[C@@H]3C[C@@H](O)CC(=O)O3)[C@H]21 [Lovastatin],inactive: 1.28
8,Cc1cn(CCN2CCN(c3ccccc3-c3cc(C#N)cc(C(=O)NCCCN4CCCC4)c3)CC2)c2ccccc12,inactive: 1.03
9,COc1ccc(C2CC(c3ccccc3)=NN2c2ccc(S(N)(=O)=O)cc2)cc1 (stereo not given),active: 0.591
10,CCOC(=O)CCNc1cc(N2CCc3ccccc3CC2)nc(-c2ccccn2)n1,active: 0.623
11,CC[C@H](NC(=O)[C@H](C)NC)C(=O)N1C[C@@H](O)C[C@H]1Cc1c(-c2[nH]c3cc(F)ccc3c2C[C@@H]2C[C@H](O)CN2C(=O)[C@H](CC)NC(=O)[C@H](C)NC)[nH]c2cc(F)ccc12 [Birinapant],active: 0.661
12,CC1(C)CCC(c2ccc(Cl)cc2)=C(CN2CCN(c3ccc(C(=O)NS(=O)(=O)c4ccc(N[C@H](CCN5CCOCC5)CSc5ccccc5)c(S(=O)(=O)C(F)(F)F)c4)cc3)CC2)C1 [Navitoclax (ABT-263)],inactive: 0.839
13,NC(=O)c1cnc(NCCc2ccc(O)c(Cl)c2)nc1NCc1ccccc1,inactive: 1.33
14,Nc1nc(NC2CC2)cc(-c2cccc(Cl)c2Cl)n1,active: 0.494
15,O=C(Nc1ccc2[nH]nc(-c3ccncc3)c2c1)[C@@H]1CCN(CC(=O)N2CCN(c3ccc(-c4ncccn4)cc3)CC2)C1,inactive: 0.944
16,CC(=O)Nc1cccc(-n2c(=O)n(C3CC3)c(=O)c3c(Nc4ccc(I)cc4F)n(C)c(=O)c(C)c32)c1,inactive: 0.782
17,O=C(NC[C@H](O)CN1CCc2ccccc2C1)c1cc(NC2COC2)ncn1,active: 0.539
18,CNC(=O)c1cc(Oc2ccc(NC(=O)Nc3ccc(Cl)c(C(F)(F)F)c3)c(F)c2)ccn1 [Regorafenib],active: 0.682
19,O=c1cc(N2CCOCC2)oc2c(-c3cccc4c3sc3ccccc34)cccc12,active: 0.392
20,"CCN(CCCOc1ccc2c(Nc3cc(CC(=O)Nc4cccc(F)c4)[nH]n3)ncnc2c1)CCOP(=O)(O)O [Barasertib (AZD1152-HQPA, AZD2811)]",inactive: 0.988

row,Compound,cell-surface PD-L1 MFI ratio
1,Cc1[nH]c2ccc(F)cc2c1-c1nc2c3cccnc3c3ncccc3c2[nH]1,active: 0.653
2,CCn1c2ccccc2c2cc(-n3nncc3-c3ccccc3)ccc21,inactive: 2.38
3,NC(=O)c1ncn([C@@H]2O[C@H](CO)[C@@H](O)[C@H]2O)c1N [AICAR (Acadesine)],active: 0.668
4,CC(C)N1CCN(Cc2cnc(-c3cc(-c4cccc5[nH]ccc45)cc4[nH]ncc34)o2)CC1,active: 0.686
5,CC(C)c1c(C(=O)Nc2ccccc2)c(-c2ccccc2)c(-c2ccc(F)cc2)n1CC[C@@H](O)C[C@@H](O)CC(=O)O [Atorvastatin],active: 0.497
6,COc1cc2nc(N3CCCC3)nc(NCCCCCN3CCCC3)c2cc1OC,active: 0.738
7,CN(C)C(=N)NC(=N)N [Metformin],active: 0.636
8,CC(ONC(=O)c1cc(C(F)(F)F)cc(C(F)(F)F)c1)C(=O)Nc1ccc(Cl)cc1 (stereo not given),active: 0.573
9,CNC(=O)c1ccccc1Sc1ccc2c(/C=C/c3ccccn3)n[nH]c2c1 [Axitinib],inactive: 1.03
10,CC(C)n1c(=O)n(C)c2cnc3cc(F)c(-c4ccc(OCCCN5CCCCC5)nc4)cc3c21,inactive: 1.1
11,CCCc1cc(C)[nH]c(=O)c1CNC(=O)c1cc(-c2ccc(N3CCN(C(C)C)CC3)nc2)cc2c1cnn2C(C)C,active: 0.582
12,Oc1ccc(Nc2nc(-c3ccc(Cl)cc3)cs2)cc1,active: 0.667
13,COc1ccc(Oc2cc(NCCC(F)(F)F)c3ncc(-c4ccc(C(=O)NC5CC5)c(C)c4)n3n2)c(F)c1F,inactive: 0.802
14,CC(C)C[C@H](NC(=O)[C@H](Cc1ccccc1)NC(=O)c1cnccn1)B(O)O [Bortezomib (PS-341)],inactive: 1.68
15,Cc1cnc(-c2cnc(NCCNc3ccc(C#N)cn3)nc2-c2ccc(Cl)cc2Cl)[nH]1,inactive: 0.845
16,O=C(N/N=C/c1ccc(O)c(O)c1)c1cc2ccccc2cc1O [Dynasore],active: 0.75
17,OCC1OC(O)CC(O)C1O [2-Deoxy-D-glucose],inactive: 0.867
18,CC(C)(CO)n1cc(C(=O)c2cncc(NC(=O)Cc3ccc(Cl)cn3)c2)c2cnc(N)nc21,inactive: 1.09
19,N#CC[C@H](C1CCCC1)n1cc(-c2ncnc3[nH]ccc23)cn1,inactive: 1.37
20,Cc1nc(NC(=O)N2CCC[C@H]2C(N)=O)sc1-c1ccnc(C(C)(C)C(F)(F)F)c1 [Alpelisib (BYL719)],active: 0.462
